Some of the results follow. At the low end of the ranking the order means little. Measured with an extract: partners may take part in the binding.
The sequences below were run against T1, HNF4alpha8 (COS-7 nuclear extract) (UniProt P41235-5) (assay: protein-binding microarray). Conditions: COS-7 nuclear extract on double-stranded Agilent 4x180k PBM; binding buffer, salt, pH and temperature not given; high values mean tight binding; double strand, one strand shown; sequences stand for … in …GCCTAGGGAGATTAGAGTATCGGTCGA.
T1 sequence: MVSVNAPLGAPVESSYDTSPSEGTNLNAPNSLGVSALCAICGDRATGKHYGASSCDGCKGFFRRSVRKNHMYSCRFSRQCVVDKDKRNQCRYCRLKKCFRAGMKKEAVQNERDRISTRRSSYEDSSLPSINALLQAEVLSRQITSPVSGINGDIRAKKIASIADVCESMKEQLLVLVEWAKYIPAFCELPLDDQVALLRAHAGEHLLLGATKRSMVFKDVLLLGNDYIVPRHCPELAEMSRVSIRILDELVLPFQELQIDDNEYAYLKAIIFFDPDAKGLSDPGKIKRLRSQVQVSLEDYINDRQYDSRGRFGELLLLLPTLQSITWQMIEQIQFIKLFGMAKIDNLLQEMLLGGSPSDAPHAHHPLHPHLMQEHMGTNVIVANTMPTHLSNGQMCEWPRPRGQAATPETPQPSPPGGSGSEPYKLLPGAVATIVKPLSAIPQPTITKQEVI
With AGCAGTGACCATCCCAAAGCTTTTTGATTG the binding signal (log2 normalized intensity) was -1.26. Sequence TGTCAAGATTGAGACATTCATGGCTTTTGT has a binding signal (log2 normalized intensity) of 0.467. GCTGCCCTGCACCTGGAGCCCTTAGGGTCA gave a binding signal (log2 normalized intensity) of 3.22. TTCATCTCACAGAGTGGAGTCTTCCGTTTG was tested, and the binding signal (log2 normalized intensity) was 0.328. In the case of AGTGCATGAATCAACTGTTGTGGACCACGT, the binding signal (log2 normalized intensity) is reported as 2.2. AGTTGGGAAAAGTAACACAGTAAGAGACTT showed a binding signal (log2 normalized intensity) of -1.32. Work on AAATGAGAATGAGACCTGCTAGGCTGCATT yielded a binding signal (log2 normalized intensity) of -1.21. TGGCTGGCTTTAGAGTTGTAGCTCTCAGCT showed a binding signal (log2 normalized intensity) of -1.32. GACCTGGGAATTCAAGGAATGCAGCTCAGA gave a binding signal (log2 normalized intensity) of -1.26. Work on TGCGACAGGGAGATTTCCTGGGAGAGAAAA yielded a binding signal (log2 normalized intensity) of -1.37. TGGTAACCGGAGCAAAGGTTACTCTTGTTA gave a binding signal (log2 normalized intensity) of 3.36. ATCTAGTTTCCTAGCTCACTGATAAGAAAG was tested, and the binding signal (log2 normalized intensity) was -1.42. Work on CAACATTGCGCAATGCACACACTTACACAT yielded a binding signal (log2 normalized intensity) of -1.31. For TACTTTAGCTGCCAGAGGTTCTTTCACAGG, the binding signal (log2 normalized intensity) was 0.415. For TTTCTGCTCTCAACTAGAGATAAACTTTTG, the binding signal (log2 normalized intensity) was 0.481. CCGCGATTCCCGCCGCCTCCGCTGGGGGAC showed a binding signal (log2 normalized intensity) of -1.37. Sequence AATGCGAGAGTACACAGAAGTTAATTTCAA has a binding signal (log2 normalized intensity) of -1.41. CTTCCCAATCAGAAACCGGGCCAATGGGTT was tested, and the binding signal (log2 normalized intensity) was 0.558. For AAGAGGCTGTCAACGGAGGTGGGAAAGACT, the binding signal (log2 normalized intensity) was -1.38. In the case of TGAGCACATTCTTCAATATCAGTGGCACTC, the binding signal (log2 normalized intensity) is reported as 0.295. CTTCAGCTTGAAAACACAACAAAAGAACTC showed a binding signal (log2 normalized intensity) of -1.37. In the case of TCATTTCAGCCTTAACTCAAAAGGCCAAAG, the binding signal (log2 normalized intensity) is reported as -1.09. In the case of GGGGCGATGCTTCCAAAGTCCACAGTCCCC, the binding signal (log2 normalized intensity) is reported as 3.92. In the case of AGGGTTATGGGAAGTGGGGTAAGCAAGGCT, the binding signal (log2 normalized intensity) is reported as -1.35. In the case of TTTGGTACTCTTATCAGCAGTGACTTGAGA, the binding signal (log2 normalized intensity) is reported as 0.582. In the case of GAAACCCTAAACCTGCAAACCTTTGACCTT, the binding signal (log2 normalized intensity) is reported as 5.96. AAGATAGGAATGTACATAATCTGGACCCAA gave a binding signal (log2 normalized intensity) of 4.38. Work on CAGAGGGAAGAGGAAGCATCCTATAGGCCT yielded a binding signal (log2 normalized intensity) of -1.34. CTTACTTGGCCTGTTTGCTGAAGGCCATGC gave a binding signal (log2 normalized intensity) of -0.877. TGCTGTCTGTCTTCGGGCGGCGGCCTCTGG showed a binding signal (log2 normalized intensity) of 0.491. Work on CAGAAAGCTCTTTGCACAGTACTGATCTGG yielded a binding signal (log2 normalized intensity) of 0.716. Work on GCCTAGGTATTGAGGGAGCAAAGGGCATGG yielded a binding signal (log2 normalized intensity) of 4.47. Work on AAGTCAGGTACTGGTAGCCTGGGCCCCAGG yielded a binding signal (log2 normalized intensity) of -0.342. With CAAGAATACGGATTCTTAAGGGCAAAGGTT the binding signal (log2 normalized intensity) was 6.75. With TGACTGTGGTACTCCAAAGGTCAGTTTAAT the binding signal (log2 normalized intensity) was 4.74. For CCCCACTGTAGTAAGGGAGTGTGGGGTGGT, the binding signal (log2 normalized intensity) was -0.92. For TCTTATTGCCTCATGTTTGCAGAATGGCTG, the binding signal (log2 normalized intensity) was 0.617. TCTTTGCCCATAGAATCTTAGGAAAGCACA showed a binding signal (log2 normalized intensity) of -1.34. With GGCCTTGGGCCACCTGAGACAGTTTATGCC the binding signal (log2 normalized intensity) was -1.24. Work on GTTGGTTTCTGGGATTTGTACAAGTGATTG yielded a binding signal (log2 normalized intensity) of 1.63.

— publication PMC10726135
